Assay results published in PubChem BioAssay AID894 (National Center for Advancing Translational Sciences (NCATS), 2007).
Out of some 150,000 compounds screened, about 6,500 (4.3%) were called active. This list was built around the results that the source calls inconclusive (neither active nor inactive); the mix of calls is not that of the screen. The call rests on the fitted dose curve; in most records, active means well fitted inhibition curve with a large enough effect (not every such curve was filed as active); inconclusive means small, poorly fitted or top-dose-only effect, or another doubt; inactive means no such curve, though single readings can be large or run the other way. Potencies of inconclusive entries are left out as doubtful fits.
On the % scale 0 is the no-effect control and ±100 the full control effect; potency means the concentration at half of the fitted maximal effect; tags describe the fitted curve by direction and shape.

Each compound was assayed against 15-hydroxyprostaglandin dehydrogenase [NAD(+)] (Homo sapiens) (UniProt P15428) (assay: qHTS Assay for Inhibitors of HPGD (15-Hydroxyprostaglandin Dehydrogenase)). Conditions: purified HPGD, NADH fluorescence kinetic, PGE2 substrate; activity change, negative = inhibition: active compounds read low.
Chain of UniProt P15428 (P15428 whole entry, looked up): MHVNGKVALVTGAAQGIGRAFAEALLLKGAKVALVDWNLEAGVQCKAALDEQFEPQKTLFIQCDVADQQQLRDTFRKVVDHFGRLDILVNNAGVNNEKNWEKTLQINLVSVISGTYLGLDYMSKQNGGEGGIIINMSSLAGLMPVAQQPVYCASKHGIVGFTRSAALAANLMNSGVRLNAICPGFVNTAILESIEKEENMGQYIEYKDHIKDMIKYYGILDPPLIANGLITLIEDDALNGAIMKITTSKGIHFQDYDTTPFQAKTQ
In short: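 NADH formation kinetics: reaction with 30 uM PGE2 and 1 mM NAD+ (final), 20 nM enzyme, Tris-HCl pH 8 with Tween 20, after 15 min compound preincubation at room temperature. Fluorescence change, last versus first of five reads.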
For CC(C)CCNc1nc2c(cc1C#N)COC(C)(C)C2, the Potency was inconclusive [inhibitor, partial curve]. For Cc1cc(C(=O)N/N=C/c2cc([N+](=O)[O-])cc(C)c2O)n[nH]1, the Potency was inconclusive [inhibitor, partial curve]. With C=CCOc1c2ccc(C(=O)NCCc3ccc(C)cc3)cc2nn1C the Potency was inconclusive [inhibitor, partial curve]. With C=C1c2cccc(C(F)(F)F)c2O[C@H](C(=O)OCC)C1OC (mixture of isomers) the activity change, negative = inhibition was inactive: -8.69%. For COc1ccc(Oc2ncc3nc(-c4cccs4)c(=O)n(Cc4cccc(OC)c4)c3n2)cc1, the activity change, negative = inhibition was inactive: -15.7%. For Nc1nnc(CSCc2ccccc2)s1, the activity change, negative = inhibition was inactive: -0.184%. For Clc1ccc(-c2nnc3sc(-c4ccc(Br)o4)nn23)cc1, the Potency was inconclusive [inhibitor, partial curve]. For Fc1cccc(-c2cc3nc4c(c(N5CCC6(CC5)OCCO6)n3n2)CCCC4)c1, the Potency was inconclusive [inhibitor, single point]. With Cc1nc(NC(=O)COC(=O)C(NC(=O)c2ccco2)C(C)C)c(Cl)cc1Cl (configuration not stated) the activity change, negative = inhibition was inactive: -10.7%. With Cc1cc(C)cc(Cn2ncc(Cl)c(Cl)c2=O)c1 the activity change, negative = inhibition was inactive: -8.32%. In the case of Cc1ccc2c(=O)c3ccccc3n(CCCN)c2c1C, the Potency is reported as inconclusive [inhibitor, partial curve]. In the case of Cc1cc(NC(=O)CCSc2nc(-c3ccco3)cc(C(F)(F)F)n2)no1, the activity change, negative = inhibition is reported as inactive: -6%. For CC(Sc1nc2ccccc2s1)C(=O)NC1CCCc2ccccc21 (configuration not stated), the activity change, negative = inhibition was inactive: -3.69%. O=C(C(Cc1ccccc1)n1cccc1)N1CCCCCC1 (configuration not stated) was tested, and the Potency was active: 28.2 µM. CCOCCCn1c(C)nc2c(c1=O)c1nc3ccccc3nc1n2CCC1=CCCCC1 was tested, and the Potency was inconclusive [inhibitor, partial curve]. In the case of COCCSc1nc2sc3c(c2c(=O)n1-c1ccccc1)CCN(C)C3, the Potency is reported as inconclusive [inhibitor, partial curve, poor fit]. With Cc1ccc(-c2cc(C(=O)OCC(=O)Nc3ncc(C(F)(F)F)cc3Cl)c3ccccc3n2)cc1 the Potency was inconclusive [inhibitor, partial curve]. COCCNC(=O)c1cc2c(=O)n(C)c3ccccc3c2n1C was tested, and the Potency was inconclusive [inhibitor, single point]. In the case of Cc1nc(NCCO)c2nc(-c3ccccc3)n(CC3CCN(C)CC3)c2n1, the Potency is reported as inconclusive [inhibitor, partial curve]. In the case of CCCS(=O)(=O)N1CCN(Cc2ccc3c(c2)c2ccccc2n3CC)CC1, the Potency is reported as inconclusive [inhibitor, single point]. O=C(CCc1nc(-c2ccccc2F)no1)NC1CCCCC1 was tested, and the Potency was inconclusive [inhibitor, partial curve]. In the case of COc1cc(/C=C2\SC(c3ccc(C)cc3)=NC2=O)cc(OC)c1O, the Potency is reported as active: 22.4 µM. In the case of CC(C)(C)NC(=O)C(c1c[nH]c2ccccc12)N(C(=O)Cn1nnc(-c2ccc(F)cc2)n1)c1cccc(O)c1 (configuration not stated), the activity change, negative = inhibition is reported as inactive: -9.52%. With O=C(Nc1ncc(Cc2cccc(Cl)c2)s1)c1cccs1 the Potency was inconclusive [inhibitor, single point]. In the case of Oc1ccccc1/C=N/c1c(-c2ccco2)nc2ccccn12, the Potency is reported as inconclusive [inhibitor, partial curve]. With COc1cc2c(cc1OC)C(Cc1ccc(O)cc1)NCC2 (configuration not stated) the activity change, negative = inhibition was inactive: -3.67%. O=C(CSc1nc2ccccc2s1)NC(=O)NCc1ccco1 was tested, and the Potency was active: 25.1 µM. For COc1ccc2c(c1)cc(C(=O)O)n2C, the Potency was inconclusive [inhibitor, partial curve]. In the case of Cc1cccc(CNc2ncnc3ccc(-c4cccnc4)cc23)c1, the Potency is reported as inconclusive [inhibitor, partial curve]. For O=C(COc1ccccc1[N+](=O)[O-])N/N=C/c1ccccn1, the activity change, negative = inhibition was inactive: -11.6%. In the case of O=C1c2ccc3c4c(ccc(c24)C(=O)N1NC(=O)C(F)(F)F)CC3, the Potency is reported as inconclusive [inhibitor, partial curve]. For O=C(Nc1ccccc1C(=O)NCc1ccco1)c1ccccc1, the activity change, negative = inhibition was inactive: -12.4%. With CC(=N)C1=C(O)CC(C)(C)CC1=O the activity change, negative = inhibition was inactive: -6.61%. With S=C(Nc1cccc(Cl)c1)Nc1cccc2cnccc12 the Potency was inconclusive [inhibitor, single point]. For COc1cccc(/C=N/Nc2snc(SC)c2C#N)c1, the Potency was inconclusive [inhibitor, partial curve]. CCCc1[nH]nc2c1C(c1ccccc1OC)C(C#N)=C(N)O2 (configuration not stated) was tested, and the activity change, negative = inhibition was inactive: -8.38%. CN1CCN(C(=O)c2cc3nc(-c4ccccc4)cc(C(F)(F)F)n3n2)CC1 was tested, and the Potency was active: 10 µM. With CCCNC(=O)c1noc2c1CCc1ccccc1-2 the Potency was inconclusive [inhibitor, single point]. COc1ccccc1N/C(=N/S(=O)(=O)c1ccc(C)cc1)c1ccc(Cl)cc1 was tested, and the activity change, negative = inhibition was inactive: -1.3%. With CCOc1cc(C(=S)N2CCOCC2)ccc1OC the Potency was inconclusive [inhibitor, single point]. In the case of CC(C)(C)n1nnnc1C(c1cccs1)N1CCCC2(CCCCC2)C1 (configuration not stated), the activity change, negative = inhibition is reported as inactive: -8.45%. For CCOc1ccc(N(CC(=O)NCc2ccccc2)S(C)(=O)=O)cc1, the activity change, negative = inhibition was inactive: -0.564%. CC(C)CN1CCCC2(CCN(C(=O)c3csnn3)CC2)C1 was tested, and the activity change, negative = inhibition was inactive: 0.325%. COCCn1c(N)c(S(=O)(=O)c2cccs2)c2nc3ccccc3nc21 was tested, and the Potency was inconclusive [inhibitor, partial curve]. Cc1ccc(-c2nc(C#N)c(NCc3cccc4c3OCO4)o2)cc1 was tested, and the Potency was inconclusive [inhibitor, partial curve]. With C(=C/c1ccnc2nc(SC/C=C/c3ccccc3)nn12)/c1ccccc1 the Potency was inconclusive [inhibitor, single point]. With CCN(CC)c1ccc(/C=N/N2CCN(Cc3ccccc3)CC2)c(O)c1 the activity change, negative = inhibition was inactive: -15.5%. For COc1ccc(CCNC(=S)Nc2ccccc2C)cc1, the activity change, negative = inhibition was inactive: -2.44%. For CCC1(C)Cc2c(C#N)c(N)sc(=S)c2CO1 (configuration not stated), the Potency was active: 28.2 µM. O=C(Cc1ccccc1)Nc1nc2ccc(Cl)cc2c2nc(-c3ccco3)nn12 was tested, and the Potency was inconclusive [inhibitor, full curve]. In the case of CCc1ccc(OCCNC(=O)c2cccs2)cc1, the activity change, negative = inhibition is reported as inactive: -21.4%. For NS(=O)(=O)c1ccc(NC(=S)NCC2CCCO2)cc1 (configuration not stated), the Potency was inconclusive [inhibitor, single point]. For COc1ccc(C)cc1S(=O)(=O)Nc1ccc(F)c(Cl)c1, the Potency was active: 28.2 µM. For CC(C)CCNC(=O)c1cnn2c(C(F)(F)F)cc(-c3ccco3)nc12, the Potency was inconclusive [inhibitor, partial curve]. COC(=O)c1ccc(-c2ccco2)n1Cc1ccccc1Cl was tested, and the Potency was inconclusive [inhibitor, single point]. COc1ccc(-c2[nH]ncc2/C=N/NC(=O)c2ccc(Br)cc2)c(OC)c1 was tested, and the Potency was inconclusive [inhibitor, single point]. For CCC(C)n1c(-c2ccco2)nc2nc3ccccc3nc21 (configuration not stated), the Potency was inconclusive [inhibitor, partial curve]. CCOC(=O)c1nn(-c2ccc(F)cc2)c2c1CC/C2=C/c1ccccc1 was tested, and the Potency was inconclusive [inhibitor, partial curve]. In the case of Cc1ccc(CN2C(=O)CCC2C(=O)NCCN(CC(C)C)CC(C)C)cc1 (configuration not stated), the activity change, negative = inhibition is reported as inactive: -7.17%. In the case of Cc1ccc2nc(-c3ccc(NC(=O)COC(=O)c4ccc(Br)o4)cc3)sc2c1, the Potency is reported as inconclusive [inhibitor, partial curve, poor fit]. For C=CCOC(=O)N[C@H](/C(C(=O)OC)=C(\C)NCc1ccccc1)c1ccc2c(c1)OCO2, the activity change, negative = inhibition was inactive: -8.24%. CCOCCCNC(=O)c1c(N)n(-c2ccc(S(N)(=O)=O)cc2)c2nc3ccccc3nc12 was tested, and the Potency was inconclusive [inhibitor, partial curve]. CCOc1cc(C(=O)Nc2ccc(S(=O)(=O)N3CCOCC3)cc2)cc(OCC)c1OCC was tested, and the activity change, negative = inhibition was inactive: -8.49%. With CCCSC1=C(C#N)C(c2cccs2)C(C(=O)Nc2ccccc2)=C(C)N1 (configuration not stated) the Potency was inconclusive [inhibitor, partial curve]. In the case of CS(=O)(=O)Nc1ccc(-c2n[nH]c(=S)n2-c2ccccc2)cc1, the Potency is reported as inconclusive [inhibitor, partial curve]. CCOC(=O)c1sc(NC(=O)CSc2nc3c(c(=O)n2-c2ccc(C)cc2)SCC3)c(C(=O)OCC)c1C was tested, and the activity change, negative = inhibition was inactive: -29%. For Cc1ccc(-n2nc(C)c3c2OC(N)=C(C#N)C3c2ccco2)cc1 (configuration not stated), the Potency was inconclusive [inhibitor, partial curve]. In the case of C/C(=N\NC(=O)c1c(Br)c(C)nn1C)c1cccc(NC(=O)c2ccccc2C)c1, the Potency is reported as inconclusive [inhibitor, partial curve]. With Cc1nc(NC(=O)/C=C/c2ccccc2)sc1C(=O)Nc1ccc(Cl)cc1 the Potency was inconclusive [inhibitor, partial curve]. With CCc1ccc2c(O)c3c(cc2c1C(=O)OC)C(=O)c1c(O)ccc(O)c1C3=O the Potency was inconclusive [inhibitor, partial curve]. In the case of COc1ccc(Cn2c(-c3ccc(Br)cc3)c[n+]3ccccc23)cc1, the activity change, negative = inhibition is reported as inactive: -1.92%. With CCCS(=O)(=O)N1CCCC(C(=O)N2CCN(c3ccccn3)CC2)C1 (configuration not stated) the Potency was inconclusive [inhibitor, partial curve].
